Out of some 150,000 compounds screened, about 540 (0.36%) showed an effect of 50% or more. Some of the results follow.
tested on: Plasmodium falciparum; experiment: Primary screen in NF54 nanoGlo assay, in single point, at 2uM, 72h; a lower Z score goes with more inhibition; assay type: functional, Erythrocyte; settings: timepoint 72 hour

Compound	% Inhibition [%]	Z score
COc1cc(NC(=O)CN2CCC3(CC2)N=C(c2ccccc2)C(=O)N3)cc(OC)c1	-15	1.42
CN1CCCN(C(=O)C(=O)Nc2ccccc2Br)CC1	-1	0.15
O=C(C(F)F)N(Cc1cccnc1)c1ccc(F)cc1	-34	3.98
C[C@]1(c2nc(COc3cccc(Cl)c3)nn2CCO)CCCNC1	-4	0.78
Cc1ccc(CNC(=O)C2CCCCC2)s1	6	-1.22
CCCNC(=O)[C@H]1CCCN(C(=O)c2nnc(C(=O)Nc3cccc(Cl)c3)s2)C1	7	-1
CCc1ncc(S(=O)(=O)N2CCCC[C@H]2c2nnc[nH]2)s1	5	-0.88
CCCCN(C(=O)c1cccc[n+]1[O-])[C@@H](CC)c1ccccc1	1	-0.08
CS(=O)(=O)NCc1ccc(C(N)=O)cc1	-4	0.51
Nc1nnc(CCCn2cc(-c3ccc4ccccc4c3)nn2)s1	6	-0.8
CN(C(=O)[C@H]1CC12CC2)c1ccc(F)cn1	-17	1.47
O=C(Nc1nnc2ccccn12)c1ccc(-c2ccccc2F)s1	-6	1
Cc1ccc(-n2nc3c(=O)n([C@@H](C)C(=O)NCc4cccc(F)c4)nc(C)c3c2C)cc1	16	-1.81
CON(C)C(=O)c1ccnc(OCC2CCOCC2)c1	-9	1.68
CC1(C)C(NC(=O)Cc2cccc(O)c2)C2CCCOC21 (stereo not drawn)	-6	0.6
COCC1CCN(C(=O)c2nnn(-c3ccc(F)c(F)c3)c2C)CC1	-12	1.32
CC(C)n1nccc1C(=O)NCCc1ncc[nH]1	-10	0.94
COc1ccc(S(=O)(=O)Oc2ccc(Oc3ncc(Cl)cc3Cl)cc2)cc1OC	-17	2.24
CC(C)N(Cc1cnn(C)c1)C(=O)C[C@H]1C(=O)NCCN1Cc1cccc2ccccc12	-3	0.41
O=C(NCC[C@H](O)C1CC1)c1cccs1	-7	0.95
COCCNC(=O)c1nnn2c1c(=O)[nH]c1cc(C)ccc12	2	-0.29
COC1CCCN(C(=O)CC2(c3ccccc3)CC(=O)N(Cc3cccnc3)C2=O)C1 (stereo not drawn)	1	-0.09
CCOc1ccc(Cl)cc1CN(C)Cc1cc2n(n1)CCCNC2	-14	1.39
CS(=O)(=O)N1CCN(C(=O)COc2ccc(OCc3ccccc3)cc2)CC1	1	-0.13
Cc1cnc(NC(=O)c2ccccc2C(=O)c2ccc(Cl)cc2)s1	35	-3.36
CCn1cc(C2(c3cn(CC)c4ccccc34)C(=O)Nc3ccccc32)c2ccccc21	0	-0.02
Cc1cncc(=O)n1CC(=O)N(C1CCCC1)[C@H]1CCS(=O)(=O)C1	-12	1.39

Compound	% Inhibition [%]	Z score
COC[C@H]1[C@H](NS(=O)(=O)c2cccc3nn(C)nc23)[C@H]2CCO[C@H]21	-17	2.41
COc1ccccc1CCC(=O)N1CCC2(CCC(=O)N(CC3CC3)CC2)CC1	-2	0.25
O=C(NCC1(c2ccccc2Cl)CCOCC1)N1CCOCC1	-4	0.54
CN(CC(=O)Nc1ccc(Cl)cc1)C(=O)CCC1CCCC1	-1	0.08
C=CCN(c1ccccc1OC)S(=O)(=O)c1cccc(C(=O)Nc2ccc(N3CCOCC3)c(S(=O)(=O)Nc3ccc(Cl)cc3)c2)c1	-7	1.07
CC[C@H]1CN(C(=O)c2c[nH]c(C(F)(F)F)c2)CCCO1	-3	0.48
CCC(=O)c1c[nH]c(C(=O)NCc2cccnc2)c1	-2	0.29
CCOCCCNC(=O)Nc1nnc(N(C)Cc2ccccc2)s1	-7	1.09
CN1C[C@@H](NC(=O)Cn2c(C3CC3)nc3ccccc32)C[C@H]1C(=O)O	-3	0.45
Cc1cccc(NC(=O)c2cc3nccc(-c4ccc(F)cc4)n3n2)c1	-14	1.77
CCCN1CCn2c1nc(COC)cc2=O	-4	0.81
CC(C)Nc1c(Cl)cccc1NCC(=O)N[C@@H](C)C(=O)N(C)C	-10	1.23
CC[C@@](NC(=O)Cc1cccc(C)c1)(C(N)=O)C(C)C	-2	0.21
COc1ccccc1C(=O)/N=C(/Nc1ccccc1)C(Cl)(Cl)Cl	-8	1.31
COc1cccc(C(=O)N2CCN(C(=O)Cn3nnnc3CN3CCCC3)CC2)c1	-18	1.57
CCc1cnccc1C(=O)N(Cc1ccccn1)c1ccncc1	-11	1.51
O=C(NCc1ccc(Cl)s1)N[C@H]1CCCC12CCOCC2	-18	1.58
CN(CC(=O)NC1CC1)c1ncnc2cc(Cl)ccc12	-5	0.55
CCN(C)C(=O)[C@H]1CN(C(=O)OC(C)(C)C)C[C@@H]1C(=O)N(C)CC	-9	0.84
c1nc(OCC2CCN(c3ncnc4[nH]cnc34)CC2)cc(C2CC2)n1	4	-0.67
O=C(Nc1nnc2ccccn12)c1ccc(CNC(=O)c2cccs2)cc1	-15	1.48
CN1CCN(C(=O)C[C@H]2Cn3ncc(-c4ccc(Cl)cc4)c3NC2=O)CC1	-10	1.84
CCCN(C)S(=O)(=O)NCC1CCCC1O (stereo not drawn)	-10	0.98
Cc1ccc(C[C@H](CO)CNC(=O)c2cc(C)c(C)o2)cc1	-11	1.43
Cc1csc(CN2CCN(S(C)(=O)=O)[C@@H](C)C2)n1	5	-0.78
CCNc1nc(C)c(C(=O)N2C[C@H]3CC=CC[C@H]3C2)s1	-11	1.06
CC(=O)c1ccccc1C(=O)NC1CCCC1C (stereo not drawn)	39	-3.95

Reference: ChEMBL document CHEMBL4888484, “Replenishing the malaria drug discovery pipeline: Screening and hit evaluation of the MMV Hit Generation Library 1 (HGL1) against asexual blood stage Plasmodium falciparum ,using a nano luciferase reporter read-out” (2022)
